The entries are a selection whose mix differs from that of the whole data set. Results filed as inconclusive are left out. Activity calls are given as the source filed them. The call rests on the fitted dose curve; in most records, active means well fitted curve in the direction sought with a large enough effect; inconclusive means small, poorly fitted or top-dose-only effect, or effect the other way; inactive means no such curve, though single readings can be large or run the other way.
biological target: Cytochrome P450 2C19 (Homo sapiens) (UniProt P33261); assay: Cytochrome panel assay with activity outcomes; details: recombinant CYP, pro-luciferin dealkylation, luminescence, p450-cyp2c19; at 25.6 µM (top of the series)
Chain of UniProt P33261 (P33261 whole entry, looked up): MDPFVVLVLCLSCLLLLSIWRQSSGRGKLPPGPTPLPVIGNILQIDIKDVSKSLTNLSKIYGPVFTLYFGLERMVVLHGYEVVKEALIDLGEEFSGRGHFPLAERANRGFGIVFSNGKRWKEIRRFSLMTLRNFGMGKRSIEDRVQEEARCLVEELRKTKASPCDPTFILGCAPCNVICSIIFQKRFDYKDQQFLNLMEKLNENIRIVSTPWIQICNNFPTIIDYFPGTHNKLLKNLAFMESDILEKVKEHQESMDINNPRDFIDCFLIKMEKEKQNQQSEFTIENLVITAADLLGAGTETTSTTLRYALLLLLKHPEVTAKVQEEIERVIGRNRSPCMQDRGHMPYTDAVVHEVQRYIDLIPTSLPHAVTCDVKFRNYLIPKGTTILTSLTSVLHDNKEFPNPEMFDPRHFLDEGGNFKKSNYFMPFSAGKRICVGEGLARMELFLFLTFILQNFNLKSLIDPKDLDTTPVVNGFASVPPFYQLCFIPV
On the % scale 0 is the no-effect control and ±100 the full control effect.

| SMILES | activity, negative = inhibition |
| --- | --- |
| CC(=O)[C@@H]1CC[C@H]2[C@H]3CC[C@H]4C[C@@H](O)CC[C@]4(C)[C@@H]3C(=O)C[C@@]12C | inactive: -30.3% |

Source: PubChem BioAssay AID1851 (National Center for Advancing Translational Sciences (NCATS), 2009)
